The list shows a part of the results.
Experiments:
Experiment in all cases: glycan array binding signal (z-score within array); higher = stronger binding
Conditions in all cases: glycan notation: IUPAC condensed, linker removed
Kdn(a2-3)Gal(b1-4)Glc = target: Kdn(a2-3)Gal(b1-4)Glc
Summary of the method: (§1)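 Columns mapping to the same glycan were averaged after glycan names were converted to IUPAC-condensed notation. The data come from 3228 arrays in the Consortium for Functional Glycomics database, limited to those with an available protein sequence. Binding is reported as a within-array Z-score averaged across arrays of one protein sequence and across linkers.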

Kdn(a2-3)Gal(b1-4)GlcNAc = target: Kdn(a2-3)Gal(b1-4)GlcNAc
Summary of the method: as §1

[1] = target: Kdn(a2-3)Gal(b1-4)[Fuc(a1-3)]GlcNAc
Summary of the method: as §1

Kdn(a2-6)Gal(b1-4)GlcNAc = target: Kdn(a2-6)Gal(b1-4)GlcNAc
Summary of the method: as §1

[2] = target: Man(a1-2)Man(a1-2)Man(a1-3)Man
Summary of the method: as §1

[3] = target: Man(a1-2)Man(a1-2)Man(a1-6)[Man(a1-3)]Man
Summary of the method: as §1

Man(a1-2)Man(a1-3)Man = target: Man(a1-2)Man(a1-3)Man
Summary of the method: as §1

[4] = target: Man(a1-2)Man(a1-3)[Man(a1-2)Man(a1-6)]Man
Summary of the method: as §1

[5] = target: Man(a1-2)Man(a1-3)[Man(a1-2)Man(a1-6)]Man(a1-6)[Man(a1-2)Man(a1-2)Man(a1-3)]Man
Summary of the method: as §1

[6] = target: Man(a1-2)Man(a1-3)[Man(a1-2)Man(a1-6)]Man(a1-6)[Man(a1-2)Man(a1-2)Man(a1-3)]Man(b1-4)GlcNAc(b1-4)GlcNAc
Summary of the method: as §1

[7] = target: Man(a1-2)Man(a1-3)[Man(a1-6)]Man(a1-6)[Man(a1-2)Man(a1-3)]Man(b1-4)GlcNAc(b1-4)GlcNAc
Summary of the method: as §1

[8] = target: Man(a1-2)Man(a1-6)[Man(a1-3)]Man(a1-6)[Man(a1-2)Man(a1-2)Man(a1-3)]Man
Summary of the method: as §1

[9] = target: Man(a1-2)Man(a1-6)[Man(a1-3)]Man(a1-6)[Man(a1-2)Man(a1-2)Man(a1-3)]Man(b1-4)GlcNAc(b1-4)GlcNAc
Summary of the method: as §1

Man(a1-3)[Man(a1-6)]Man = target: Man(a1-3)[Man(a1-6)]Man
Summary of the method: as §1

[10] = target: Man(a1-3)[Man(a1-6)]Man(a1-6)[Man(a1-2)Man(a1-3)]Man(b1-4)GlcNAc(b1-4)GlcNAc
Summary of the method: as §1

[11] = target: Man(a1-3)[Man(a1-6)]Man(a1-6)[Man(a1-3)]Man
Summary of the method: as §1

[12] = target: Man(a1-3)[Man(a1-6)]Man(a1-6)[Man(a1-3)]Man(b1-4)GlcNAc(b1-4)GlcNAc
Summary of the method: as §1

[13] = target: Man(a1-3)[Man(a1-6)]Man(b1-4)GlcNAc(b1-4)GlcNAc
Summary of the method: as §1

[14] = target: Man(a1-3)[Man(a1-6)]Man(b1-4)GlcNAc(b1-4)[Fuc(a1-6)]GlcNAc
Summary of the method: as §1

Man(a1-6)Man = target: Man(a1-6)Man
Summary of the method: as §1

Man(b1-4)GlcNAc = target: Man(b1-4)GlcNAc
Summary of the method: as §1

MurNAc(b1-4)GlcNAc = target: MurNAc(b1-4)GlcNAc
Summary of the method: as §1

Neu5Ac(a2-3)Gal = target: Neu5Ac(a2-3)Gal
Summary of the method: as §1

[15] = target: Neu5Ac(a2-3)Gal(b1-3)GalNAc
Summary of the method: as §1

[16] = target: Neu5Ac(a2-3)Gal(b1-3)GalNAc(b1-3)Gal(a1-4)Gal(b1-4)Glc
Summary of the method: as §1

[17] = target: Neu5Ac(a2-3)Gal(b1-3)GalNAc(b1-4)[Neu5Ac(a2-3)]Gal(b1-4)Glc
Summary of the method: as §1

[18] = target: Neu5Ac(a2-3)Gal(b1-3)GalNAc(b1-4)[Neu5Ac(a2-8)Neu5Ac(a2-3)]Gal(b1-4)Glc
Summary of the method: as §1

[19] = target: Neu5Ac(a2-3)Gal(b1-3)GalNAc6S
Summary of the method: as §1

[20] = target: Neu5Ac(a2-3)Gal(b1-3)GlcNAc
Summary of the method: as §1

[21] = target: Neu5Ac(a2-3)Gal(b1-3)GlcNAc(b1-2)Man
Summary of the method: as §1

[22] = target: Neu5Ac(a2-3)Gal(b1-3)GlcNAc(b1-2)Man(a1-3)[GlcNAc(b1-4)][Neu5Ac(a2-3)Gal(b1-3)GlcNAc(b1-2)Man(a1-6)]Man(b1-4)GlcNAc(b1-4)GlcNAc
Summary of the method: as §1

[23] = target: Neu5Ac(a2-3)Gal(b1-3)GlcNAc(b1-2)Man(a1-3)[Neu5Ac(a2-3)Gal(b1-3)GlcNAc(b1-2)Man(a1-6)]Man(b1-4)GlcNAc(b1-4)GlcNAc
Summary of the method: as §1

[24] = target: Neu5Ac(a2-3)Gal(b1-3)GlcNAc(b1-3)Gal(b1-3)GlcNAc
Summary of the method: as §1

[25] = target: Neu5Ac(a2-3)Gal(b1-3)GlcNAc(b1-3)Gal(b1-4)GlcNAc
Summary of the method: as §1

[26] = target: Neu5Ac(a2-3)Gal(b1-3)GlcNAc(b1-3)GalNAc
Summary of the method: as §1

[27] = target: Neu5Ac(a2-3)Gal(b1-3)GlcNAc(b1-4)Gal(b1-4)Glc
Summary of the method: as §1

[28] = target: Neu5Ac(a2-3)Gal(b1-3)GlcNAc(b1-6)GalNAc
Summary of the method: as §1

[29] = target: Neu5Ac(a2-3)Gal(b1-3)GlcNAc6S
Summary of the method: as §1

B1: SBD-G4S3-Fc (protein)
chain: MASIPSSASVQLDSYNYDGSTFSGKIYVKNIAYSKKVTVVYADGSDNWNNNGNIIAASFSGPISGSNYEYWTFSASVKGIKEFYIKYEVSGKTYYDNNNSANYQVSTGGGGSGGGGSGGGGSEFVPRDCGCKPCICTVPEVSSVFIFPPKPKDVLTITLTPKVTCVVVDISKDDPEVQFSWFVDDVEVHTAQTQPREEQFNSTFRSVSELPIMHQDWLNGKEFKCRVNSAAFPAPIEKTISKTKGRPKAPQVYTIPPPKEQMAKDKVSLTCMITDFFPEDITVEWQWNGQPAENYKNTQPIMDTDGSYFVYSKLNVQKSNWEAGNTFTCSVLHEGLHNHHTEKSLSHSPGAA
glycan array binding signal (z-score) (Kdn(a2-3)Gal(b1-4)Glc): 0.095 | glycan array binding signal (z-score) (Kdn(a2-3)Gal(b1-4)GlcNAc): -0.256 | glycan array binding signal (z-score) [1]: 0.004 | glycan array binding signal (z-score) (Kdn(a2-6)Gal(b1-4)GlcNAc): 0.204 | glycan array binding signal (z-score) [2]: -0.438 | glycan array binding signal (z-score) [3]: -0.048 | glycan array binding signal (z-score) (Man(a1-2)Man(a1-3)Man): -0.16 | glycan array binding signal (z-score) [4]: -0.139 | glycan array binding signal (z-score) [5]: -0.272 | glycan array binding signal (z-score) [6]: -0.404 | glycan array binding signal (z-score) [7]: -0.329 | glycan array binding signal (z-score) [8]: -0.291 | glycan array binding signal (z-score) [9]: -0.386 | glycan array binding signal (z-score) (Man(a1-3)[Man(a1-6)]Man): -0.031 | glycan array binding signal (z-score) [10]: -0.1 | glycan array binding signal (z-score) [11]: 0.058 | glycan array binding signal (z-score) [12]: -0.295 | glycan array binding signal (z-score) [13]: -0.314 | glycan array binding signal (z-score) [14]: -0.118 | glycan array binding signal (z-score) (Man(a1-6)Man): -0.195 | glycan array binding signal (z-score) (Man(b1-4)GlcNAc): -0.231 | glycan array binding signal (z-score) (MurNAc(b1-4)GlcNAc): -0.28 | glycan array binding signal (z-score) (Neu5Ac(a2-3)Gal): -0.327 | glycan array binding signal (z-score) [15]: -0.124 | glycan array binding signal (z-score) [16]: 0.378 | glycan array binding signal (z-score) [17]: -0.175 | glycan array binding signal (z-score) [18]: -0.023 | glycan array binding signal (z-score) [19]: -0.106 | glycan array binding signal (z-score) [20]: -0.188 | glycan array binding signal (z-score) [21]: -0.31 | glycan array binding signal (z-score) [22]: 0.341 | glycan array binding signal (z-score) [23]: 0.147 | glycan array binding signal (z-score) [24]: -0.143 | glycan array binding signal (z-score) [25]: -0.472 | glycan array binding signal (z-score) [26]: -0.104 | glycan array binding signal (z-score) [27]: -0.403 | glycan array binding signal (z-score) [28]: -0.367 | glycan array binding signal (z-score) [29]: -0.298

— the supplement of paper PMC8728848
